Measurements taken from PMC4336329 (PLoS ONE, 2015).
The campaign covered roughly 310,000 compounds. About 2,200 (0.71%) showed an effect of 50% or more. The effect is printed as a negative number. Some of the results follow. Where a SMILES comes first, the peptide text is derived from it. [ ]: non-standard residue; d: D form. The star is where a group is joined. ξ: configuration not given here. Cbz = O=C(OCc1ccccc1)*; ξP = O=C(O)C1CCCN1

target: human ether-à-go-go-related gene (hERG) potassium channel (human, UniProt Q12809); experiment: primary screen, population patch clamp on CHO cells stably expressing hERG
Sequence (Q12809 whole entry, looked up): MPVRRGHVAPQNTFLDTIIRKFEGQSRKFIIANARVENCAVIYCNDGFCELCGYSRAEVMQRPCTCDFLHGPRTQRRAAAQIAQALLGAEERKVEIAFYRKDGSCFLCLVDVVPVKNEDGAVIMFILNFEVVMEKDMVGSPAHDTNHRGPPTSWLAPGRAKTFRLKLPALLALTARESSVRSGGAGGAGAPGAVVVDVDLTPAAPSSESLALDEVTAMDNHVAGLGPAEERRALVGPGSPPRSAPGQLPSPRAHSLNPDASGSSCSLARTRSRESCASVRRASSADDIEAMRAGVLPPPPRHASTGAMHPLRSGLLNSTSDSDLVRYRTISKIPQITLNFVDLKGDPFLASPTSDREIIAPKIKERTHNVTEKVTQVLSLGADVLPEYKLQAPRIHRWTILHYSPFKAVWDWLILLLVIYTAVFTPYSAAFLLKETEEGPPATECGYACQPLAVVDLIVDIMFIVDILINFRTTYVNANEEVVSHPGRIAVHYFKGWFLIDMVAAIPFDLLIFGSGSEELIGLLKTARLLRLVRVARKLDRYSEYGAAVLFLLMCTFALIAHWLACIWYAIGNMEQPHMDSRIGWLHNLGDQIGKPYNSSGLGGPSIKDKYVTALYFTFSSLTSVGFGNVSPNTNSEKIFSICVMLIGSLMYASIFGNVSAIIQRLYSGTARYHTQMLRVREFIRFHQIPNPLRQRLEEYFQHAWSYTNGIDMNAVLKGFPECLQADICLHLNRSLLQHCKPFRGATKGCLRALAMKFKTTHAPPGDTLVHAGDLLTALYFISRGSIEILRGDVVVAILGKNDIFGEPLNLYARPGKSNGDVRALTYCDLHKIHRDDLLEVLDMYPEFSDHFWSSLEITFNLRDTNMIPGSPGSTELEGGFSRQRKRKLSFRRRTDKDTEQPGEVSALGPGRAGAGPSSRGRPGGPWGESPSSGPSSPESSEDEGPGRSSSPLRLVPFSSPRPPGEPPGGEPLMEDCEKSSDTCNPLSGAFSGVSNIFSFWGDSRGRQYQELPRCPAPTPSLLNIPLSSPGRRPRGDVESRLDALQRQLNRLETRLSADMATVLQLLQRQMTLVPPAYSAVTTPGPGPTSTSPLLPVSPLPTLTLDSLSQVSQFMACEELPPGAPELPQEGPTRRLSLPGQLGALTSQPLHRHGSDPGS

Row | SMILES | hERG current change (%, negative = inhibition) at 1uM [%]
1 | CCn1c(C)c(C(=O)c2ccccc2)c(C#N)c1C(=O)O | 6.11
2 | COc1cc(/C=C2\SC(=S)N(N(C)c3ccccc3)C2=O)ccc1O | 1.71
3 | COc1ccc(/C=C(\NC(=O)c2ccccc2)C(=O)NCCC(=O)O)cc1 | 5.89
4 | C#C[C@]1(O)CC[C@H]2[C@@H]3CCC4=CC(=O)CC[C@@H]4[C@H]3CC[C@@]21CC | 15
5 | O=C(c1cccc(N2C(=O)C3C4C=CC(C4)C3C2=O)c1)N1CCN(c2ccc(F)cc2)CC1 (stereo not drawn) | 3.02
6 | COc1ccc(N2CCN(Cc3ccc(Br)s3)CC2)cc1 | -3.06
7 | CCOc1cc(N2CCOCC2)c(OCC)cc1NC(=O)CSc1cccc[n+]1[O-] | 14.3
8 | Cl.c1ccc2c(NCC3CCCO3)nc(N3CCCCC3)nc2c1 (stereo not drawn) | -49.3
9 | COc1cccc(NC(=O)C2CCN(Cc3cnn(-c4ccccc4)c3-n3cccc3)CC2)c1 | -3.74
10 | CCOC(=O)C(NC(C)=O)C(OC(C)=O)c1cccc([N+](=O)[O-])c1 (stereo not drawn) | 9.64
11 | c1ccc(-c2cc3c(N4CCN(c5ncccn5)CC4)ncnc3s2)cc1 | 18
12 | CCOC(=O)C1CCN(Cc2c(O)c3ccccc3oc2=O)CC1 | 8.86
13 | O=C(CCN1C(=O)C2CCCCC2C1=O)Nc1nc(-c2ccc(F)c(F)c2)cs1 (stereo not drawn) | 2.03
14 | Cl.O=C(c1coc2ccc(O)c(CN3CCOCC3)c12)C1CC1 | 10.9
15 | CCc1ccc(N(CC(=O)NC)S(C)(=O)=O)cc1 | 10.9
16 | COC(=O)CNC(=O)C1CCCN1C(=O)CNC(=O)OCc1ccccc1 (stereo not drawn) (Cbz-Gly-[ξP]-Gly-OMe) | 16
17 | COc1cccc(NC(=O)NCCN2CCCCC2)c1 | 4.59
18 | CC(C)C(=O)Nc1nc2cc3c(cc2s1)OCO3 | 12.6
19 | Cc1cc2cc(CNC(=O)c3ccc(S(=O)(=O)N(C)C)cc3)ccc2n1C | 0.0644

Row | SMILES | hERG current change (%, negative = inhibition) at 1uM [%]
20 | O=C(CCN1C(=O)/C(=C/c2ccccc2F)SC1=S)Nc1ccccn1 | 1.86
21 | O=C(C1COc2ccccc2O1)N1CCN(c2ccc(F)cc2)CC1 (stereo not drawn) | -9.29
22 | COc1cc2[nH]c(=O)n(CCC(=O)N3CCN(c4cc(Cl)ccc4C)CC3)c(=O)c2cc1OC | 12.1
23 | Cc1cc(C)c[n+](CC(=O)c2c(C)cc(C)c([N+](=O)[O-])c2C)c1.[Br-] | -52.7
24 | CC(C)CCNc1nc2c(c(=O)[nH]c(=O)n2C)n1CC(O)COC(C)C (stereo not drawn) | -0.456
25 | CC(C)CC(=O)OCc1cn(-c2ccccc2)nn1 | -7
26 | CC1CCC(NC(=O)CCN2C(=O)C3C4C=CC(C4)C3C2=O)CC1 (stereo not drawn) | 8.06
27 | CCNC(=S)NS(=O)(=O)c1ccc(F)cc1 | 16.6
28 | O=C(O)CCCN=C1NC2(CCCC2)Cc2ccccc21 | -3.41
29 | CCOC(=O)C1CCCN(C(=O)c2ccc(CS(=O)(=O)c3ccc(C)cc3)o2)C1 (stereo not drawn) | -2.34
30 | COC(=O)c1cnn(-c2nc(-c3ccccc3)cs2)c1N | 2.6
31 | Cc1nc(N2CCCCC2)c2sc(=S)n(C)c2n1 | 3.96
32 | Cn1ccnc1SCCNC(=O)CCc1nnc(CCc2ccccc2)o1 | 4.57
33 | O=C(CN1CCN(S(=O)(=O)c2cc(Cl)ccc2Cl)CC1)Nc1ccc2c(c1)OCCO2 | 8.28
34 | COc1ccc(Nc2ncnc3c2oc2ccccc23)cc1 | 4
35 | O=C(CCCCCNC(=O)c1ccccc1)N/N=C/c1ccco1 | 7.05
36 | O=C(CN1C(=O)COc2ccccc21)NCCCN1CCc2ccccc2C1 | 0.908
37 | COc1ccc(C(=O)C2CCCN(C(=O)CCC3=NNC(=O)CC3)C2)c(C)c1 (stereo not drawn) | -5.76
38 | COc1ccccc1-n1c(N)cc(=O)nc1SCC(=O)Nc1cc(C)on1 | 16.4

Row | SMILES | hERG current change (%, negative = inhibition) at 1uM [%]
39 | CCc1c(C)nc2ncnn2c1N1CCC(C(=O)Nc2ccccc2)CC1 | -18
40 | Fc1ccc(-c2n[nH]c(=S)n2Cc2ccccc2)cc1 | 17.1
41 | Fc1cccc(F)c1/C=C/c1ccc2ccccc2n1 | 1.89
42 | CCCc1cc2c(cc1NC(=O)c1ccc(Br)cc1)OCO2 | 5.51
43 | Cc1cc(C)c(NC(=O)CSc2nc3c(c(=O)n2C)SC(C)C3)c(C)c1 (stereo not drawn) | 6.65
44 | Cc1cnc(CNC(=O)c2ccc3oc(Cc4ccc(Cl)cc4)nc3c2)cn1 | 2.28
45 | Cc1onc(C(=O)NCc2cccs2)c1[N+](=O)[O-] | 10.9
46 | CC(=O)Nc1ccc(OCc2cccc([N+](=O)[O-])c2)cc1 | 6.96
47 | CCOC(=O)c1cnc2ccc(C)cc2c1Sc1ccccc1 | 4.9
48 | O=C(c1ccc(S(=O)(=O)N2CCCCC2)cc1)N(c1ccccn1)C1CCCCC1 | 3.42
49 | COc1ccccc1CCNC(C)CCc1ccc(O)cc1 (stereo not drawn) | -10.8
50 | O=C(CN1C(=O)CSC1=O)Nc1ccc2c(c1)OCCO2 | 8.19
51 | O=C1c2cnc3ncnn3c2CC2c3ccccc3CCN12 (stereo not drawn) | -6.65
52 | Cc1ccc([N+](=O)[O-])cc1N=C(c1cccc([N+](=O)[O-])c1)N1CCOCC1 | 7.11
53 | CC(=O)Nc1ccc(/C(C)=N\NC(=O)c2ccc(-c3ccccc3)cc2)cc1 | -1.89
54 | CC1CN(C(=O)CCC(=O)NC2CCCCC2)c2ccccc2S1 (stereo not drawn) | 3.02
55 | Cn1c(=O)c2c(ncn2CC(=O)Nc2nnc(Cc3ccccc3)s2)n(C)c1=O | 19.8
56 | Cc1cccc(NC(=S)NCc2ccccc2)c1C | 12.8
57 | CCN(CC(=O)Nc1cc(Cl)ccc1C)C(=O)c1ccc2c(=O)n3c(nc2c1)CCC3 | 14.9
